# Measurements from paper PMC4336329 (PLoS ONE, 2015).
# Among all 310,000 compounds or so, about 2,200 (0.71%) showed an effect of 50% or more. The effect is printed as a negative number. The list shows a part of the results.
# Target: human ether-à-go-go-related gene (hERG) potassium channel (human, UniProt Q12809)
# Assay: primary screen, population patch clamp on CHO cells stably expressing hERG
# Sequence of human ether-à-go-go-related gene (hERG) potassium channel (Q12809 whole entry, looked up): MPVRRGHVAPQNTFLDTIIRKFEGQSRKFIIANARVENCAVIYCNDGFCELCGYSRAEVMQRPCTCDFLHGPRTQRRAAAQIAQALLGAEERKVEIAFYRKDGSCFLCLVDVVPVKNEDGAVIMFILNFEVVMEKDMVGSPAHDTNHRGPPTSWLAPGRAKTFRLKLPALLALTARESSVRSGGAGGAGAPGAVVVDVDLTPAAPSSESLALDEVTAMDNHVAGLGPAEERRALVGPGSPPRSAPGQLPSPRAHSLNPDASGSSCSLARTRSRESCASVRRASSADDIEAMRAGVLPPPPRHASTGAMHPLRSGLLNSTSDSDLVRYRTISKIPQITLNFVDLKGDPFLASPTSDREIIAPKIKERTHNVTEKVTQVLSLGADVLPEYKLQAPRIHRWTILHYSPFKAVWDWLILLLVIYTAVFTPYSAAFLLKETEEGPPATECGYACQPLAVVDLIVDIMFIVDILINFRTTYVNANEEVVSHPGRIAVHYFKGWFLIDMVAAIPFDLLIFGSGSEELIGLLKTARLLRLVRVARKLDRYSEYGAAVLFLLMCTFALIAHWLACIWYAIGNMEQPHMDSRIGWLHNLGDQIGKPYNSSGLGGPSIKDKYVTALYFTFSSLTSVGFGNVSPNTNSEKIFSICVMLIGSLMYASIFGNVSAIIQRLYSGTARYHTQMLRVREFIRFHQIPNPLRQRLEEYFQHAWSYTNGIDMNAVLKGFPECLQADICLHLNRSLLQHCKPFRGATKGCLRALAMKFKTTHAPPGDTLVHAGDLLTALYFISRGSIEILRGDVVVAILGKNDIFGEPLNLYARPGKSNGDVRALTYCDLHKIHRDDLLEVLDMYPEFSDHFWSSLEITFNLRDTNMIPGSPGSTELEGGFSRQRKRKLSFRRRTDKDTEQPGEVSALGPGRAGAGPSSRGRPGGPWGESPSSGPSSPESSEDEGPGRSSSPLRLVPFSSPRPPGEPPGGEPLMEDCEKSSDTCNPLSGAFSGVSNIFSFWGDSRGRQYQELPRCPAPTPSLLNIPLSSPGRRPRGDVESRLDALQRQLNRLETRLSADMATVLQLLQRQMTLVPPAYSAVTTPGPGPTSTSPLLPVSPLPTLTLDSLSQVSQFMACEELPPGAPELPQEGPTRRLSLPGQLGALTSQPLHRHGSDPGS
row,Structure (SMILES),"hERG current change (%, negative = inhibition) at 1uM [%]"
1,CCc1ccccc1NC(=O)CC1CS(=O)(=O)CC1CC(=O)Nc1ccccc1CC (stereo not shown),7.06
2,COc1ccc2ccccc2c1/C=N/NC(=O)c1cc(C)[nH]n1,14.4
3,COc1ccc(OCC(=O)N2CCN(C(=O)COc3ccc(Br)cc3)CC2)cc1,-56.9
4,Cc1nc(N2CCN(C)CC2)c2cc(-c3ccccc3)sc2n1,7.06
5,O=C(Nc1cccc([N+](=O)[O-])c1)c1ccc2c(c1)C(=O)N(c1ccccn1)C2=O,-18
6,COc1ccc(/C=C(\NC(=O)c2ccccc2)C(=O)N/N=C/c2sccc2C)cc1,7.79
7,N#Cc1ccc(OCC(=O)N(C2CCCCC2)C2CCS(=O)(=O)C2)cc1 (stereo not shown),-18.3
8,COCCn1c(SCC(=O)Nc2cc(C)nn2-c2ccccc2)nnc1-c1ccncc1,-4.86
9,CC1CC(C)CN(c2ccc(S(=O)(=O)N3CCOCC3)cc2)C1 (stereo not shown),17.2
10,COc1ccc(C(C(=O)NC2CCCCC2)N(C(=O)c2ccco2)c2ccc(-n3cnnn3)c(C)c2)cc1 (stereo not shown),8.84
11,Cc1c(OC(C)C(=O)N2C[C@H]3C[C@@H](C2)c2cccc(=O)n2C3)ccc2c3c(c(=O)oc12)CCC3 (stereo partly shown),8.62
12,CC(=O)Nc1ccc(C(=O)N(C)c2ccccc2)cc1,11.9
13,N#CC1=C(N)Oc2n[nH]c(-c3cccs3)c2C1c1ccoc1 (stereo not shown),-2.93
14,CCOC(=O)N1CCC(N2C(=O)c3ccccc3C2Nc2cccnc2)CC1 (stereo not shown),7.46
15,Nn1c(SCc2ccccc2F)nnc1-c1cccnc1,25
16,N#Cc1c(N)n(CCCN2CCOCC2)c2nc3ccccc3nc12,-3.85
17,COc1ccc(/C=C/C(=O)c2cc(F)ccc2OC(=O)c2ccc(OC)c(OC)c2)cc1OC,8.54
18,CC(CN1CCCCC1)OC(=O)c1ccc(Cl)cc1.Cl (stereo not shown),-8.36
19,COc1ccc(Cl)c(NC(=O)NCCN2CCN(c3ccccc3)CC2)c1,1.17
20,COc1cc(C(=O)Oc2cc(N)n(S(=O)(=O)c3ccccc3)n2)cc(OC)c1OC,15.6
21,Cc1cc(C)c(S(N)(=O)=O)c(C)c1N(C)S(=O)(=O)c1ccccc1,8.03
22,Nc1ncnc2c1ncn2[C@@H]1O[C@@H]2COP(=O)([O-])O[C@H]2[C@H]1O.[Na+],-26.4

row,Structure (SMILES),"hERG current change (%, negative = inhibition) at 1uM [%]"
1,COc1ccc(Cl)cc1NS(=O)(=O)c1cccc(C(=O)NCC(C)(C)N2CCOCC2)c1,7.58
2,Cc1occc1C(=O)NC(C)C12CC3CC(CC(C3)C1)C2 (stereo not shown),10.8
3,CC(=O)Nc1ccc(NC(=O)COC(=O)Cc2c[nH]c3ccccc23)cc1,14.3
4,CCc1ccc(N(C(=O)Cc2cccs2)C(C(=O)NC2CCCCC2)c2cn(C)nc2C)cc1 (stereo not shown),-9.69
5,COc1ccc(NC(=S)NC(=O)c2cncc(Br)c2)cc1,15.4
6,O=C(NCCc1nnc2ccc(NCc3ccccc3Cl)nn12)c1ccccc1,10.9
7,CC1C(=O)Nc2ccccc2N1C(=O)c1ccc(F)cc1F (stereo not shown),12.1
8,O=C(OCc1ccccc1F)c1cc2ccccc2cc1O,14.6
9,CCN(Cc1nc2ccccc2c(=O)[nH]1)C(=O)c1ccc(C)c(NC(=O)c2ccco2)c1,-0.388
10,COc1cccc(CC(=O)OCC(=O)NCCc2ccc(F)cc2)c1,13.2
11,COc1ccc(C2C(C(C)=O)=C(C)Nc3ncnn32)cc1[N+](=O)[O-] (stereo not shown),18.3
12,CNc1nc(SC)nc(N2CCOCC2)n1,13.1
13,COc1ccc(S(=O)(=O)N2CCOC2CNC(=O)C(=O)NCC(C)C)cc1 (stereo not shown),6.98
14,CCOc1ccc(NC(=O)C2Cc3ccccc3CN2S(=O)(=O)CC)cc1 (stereo not shown),15.4
15,CS(=O)(=O)c1ccc(C(=O)N2CCc3ccccc3C2)cc1,3.66
16,Cc1ccc(SCc2cc(=O)[nH]c(/N=C(\N)Nc3ccccc3Sc3ccccc3)n2)cc1,2.43
17,Cc1ccc(Nc2nc(CSc3nnc(-c4cccnc4)n3-c3ccccc3F)cs2)cc1,-15.7
18,CCOC(=O)CN1C(=O)C(=O)c2cccc(C)c21,10.9
19,CCCNc1nc2c(c(=O)[nH]c(=O)n2C)n1Cc1ccc(F)cc1,1.92
20,Cc1cc(C)c2oc(-c3ccc(C)c(NC(=S)NC(=O)/C=C/c4ccco4)c3)nc2c1,15.3
21,COC(=O)c1cc(C(=O)c2c(C)cc3ccccn23)cc([N+](=O)[O-])c1,11
22,Cc1onc(-c2c(F)cccc2Cl)c1C(=O)N1C=CC(C(F)(F)Cl)=NCC1,1.73

row,Structure (SMILES),"hERG current change (%, negative = inhibition) at 1uM [%]"
1,O=C(NCCc1ccccc1)c1cccc(S(=O)(=O)N2CCCCC2)c1,8.36
2,CCN(CC)CCNc1nc(C(F)(F)F)nc2c1nnn2Cc1ccccc1,1.95
3,Fc1ccc(OCc2nn[nH]n2)c(F)c1,15.4
4,CC(C)(C)NC(=O)CN(CCN1CCOCC1)C(=O)CNS(=O)(=O)c1ccccc1,10.3
5,COC(=O)N1CC(=O)N(OC)C1c1ccc(Cl)cc1Cl (stereo not shown),8.83
6,O=C(CCn1cnc2ccccc2c1=O)Nc1cccc(Cl)c1,5.46
7,O=C(NNC(=S)Nc1cccc(Cl)c1)c1ccccc1,16.4
8,Cc1cc(C)nc(NS(=O)(=O)c2ccc(Br)s2)c1.Cl,8.22
9,O=C(NC1CCCCC1)c1cc(C2CC2)nn1-c1ccccc1,4.03
10,CCC(=NC(C)c1ccccc1)c1c(O)[nH]c(=O)[nH]c1=O (stereo not shown),9.41
11,CCC(=O)NC1CC2CCCC(C1)N2Cc1ccc(C)cc1 (stereo not shown),-11.9
12,CC(C)CNC(=O)c1cccc(NC(=O)CSc2ccccc2)c1,-1.35
13,CCOC(=O)C1=C(c2ccccc2)NC(=O)NC1c1cc(OC)c(OC)c(OC)c1 (stereo not shown),7.95
14,Cc1ccc(CCNS(=O)(=O)c2c(C)nc3sccn3c2=O)cc1,-4.83
15,O=C(Nc1ccccc1OC(F)F)c1ccccc1,10.1
16,Cc1ccc2nc(SC(C(=O)c3ccccc3)c3ccccc3)nc(C)c2c1 (stereo not shown),9.59
17,COC(=O)c1ccc(NC(=O)c2ccccc2CC[N+](=O)[O-])cc1,5.45
18,Cc1cc(-c2nnco2)c(C)n1-c1ccccc1,2.49
19,O=C(NCCCN1CCCC1=O)c1c(O)nc2ccccn2c1=O,29
20,COc1cc(C(C(=O)NC(C)(C)C)N(Cc2ccccc2)C(=O)c2cnccn2)cc(OC)c1OC (stereo not shown),14.6
21,Cn1cccc1/C=C1\SC(=Nc2ccccc2)NC1=O,19.8
22,CCOc1ccccc1C1NC(=O)NC(C)=C1C(=O)OCc1ccccc1 (stereo not shown),9.03

row,Structure (SMILES),"hERG current change (%, negative = inhibition) at 1uM [%]"
1,C=CCNC(=S)N(CC=C)C1CCS(=O)(=O)C1 (stereo not shown),8.6
2,CC(=O)Nc1ccc(OCC(O)CN2CCN(c3cccc(Cl)c3)CC2)cc1 (stereo not shown),-4.28
3,COc1cccc(N(CC(=O)NC2CCCCC2)C(=O)CCC(=O)Nc2nccs2)c1,8.8
4,COc1cc2c(C(=O)NCCCOC(C)C)cn(CC(C)C)c(=O)c2cc1OC,13.3
5,O=C(C(Cc1ccccc1)n1cccc1)N1CCCCCC1 (stereo not shown),13.6
6,CC(Sc1nnc(-c2ccncc2)n1C)C(=O)Nc1ccc(N2CCOCC2)cc1 (stereo not shown),4.97
7,COc1ccc(NC(=O)C2CCN(C(=O)c3cccs3)CC2)c(OC)c1,17.4
8,Cc1ccc(-c2ccc(OCC(=O)N3CCOCC3)cc2)cc1,13.3
9,CN(C(=O)Cn1nnc(-c2ccc(F)cc2)n1)C1CCS(=O)(=O)C1 (stereo not shown),9.88
10,CN(C)c1ccc(C=C2C(=O)NC(=S)NC2=O)cc1[N+](=O)[O-],16.2
11,Cc1ccc(CCN2CCN=C2Nc2ccccc2)cc1,-2.73
12,CC(CNC(=O)c1ccc(-c2ccccc2)cc1)CN(C)C (stereo not shown),-2.8
13,Cc1cc2cc(C(c3nnnn3C(C)(C)C)N(Cc3ccco3)CC3CCCO3)c(=O)[nH]c2cc1C (stereo not shown),10.4
14,NCCc1nnc(SCC(=O)c2ccc(Cl)cc2)o1,17.6
15,COC(=O)CSc1nc2[nH]ncc2c(=O)[nH]1,6.8
16,CCc1cc2c(C)cc(=O)oc2cc1OC(=O)C1CCCN1C(=O)OC(C)(C)C (stereo not shown),4.43
17,O=C(COC(=O)/C=C/c1ccc(Cl)cc1)Nc1ccccc1,2.87
18,CCN(CC)c1ccc(/C=N/NC(=O)Cc2cccs2)cc1,9.03
19,CCN(C(=O)c1cn(C)c(=O)c2cc(OC)c(OC)cc12)c1cc(OC)ccc1OC,9.42
20,Oc1ccccc1C(Nc1nccs1)c1ccc2cccnc2c1O (stereo not shown),13.7
21,COc1ccc(CN2CCC(=O)N([C@H](CO)CC(C)C)CC2)cc1OC,5.44
22,COc1ccc(C(C(=O)NC(C)(C)C)N(C(=O)Cn2nnc3ccccc32)c2ccc(C(C)=O)cc2)cc1O (stereo not shown),-0.531
